Consider 45 compounds from PMC4336329 (PLoS ONE, 2015).

Out of some 310,000 compounds screened, about 2,200 (0.71%) showed an effect of 50% or more. Effects have a minus sign here. This is one part of the list.

The target in the test is human ether-à-go-go-related gene (hERG) potassium channel (human, UniProt Q12809). Description: primary screen, population patch clamp on CHO cells stably expressing hERG.
Sequence of human ether-à-go-go-related gene (hERG) potassium channel (Q12809 whole entry, looked up): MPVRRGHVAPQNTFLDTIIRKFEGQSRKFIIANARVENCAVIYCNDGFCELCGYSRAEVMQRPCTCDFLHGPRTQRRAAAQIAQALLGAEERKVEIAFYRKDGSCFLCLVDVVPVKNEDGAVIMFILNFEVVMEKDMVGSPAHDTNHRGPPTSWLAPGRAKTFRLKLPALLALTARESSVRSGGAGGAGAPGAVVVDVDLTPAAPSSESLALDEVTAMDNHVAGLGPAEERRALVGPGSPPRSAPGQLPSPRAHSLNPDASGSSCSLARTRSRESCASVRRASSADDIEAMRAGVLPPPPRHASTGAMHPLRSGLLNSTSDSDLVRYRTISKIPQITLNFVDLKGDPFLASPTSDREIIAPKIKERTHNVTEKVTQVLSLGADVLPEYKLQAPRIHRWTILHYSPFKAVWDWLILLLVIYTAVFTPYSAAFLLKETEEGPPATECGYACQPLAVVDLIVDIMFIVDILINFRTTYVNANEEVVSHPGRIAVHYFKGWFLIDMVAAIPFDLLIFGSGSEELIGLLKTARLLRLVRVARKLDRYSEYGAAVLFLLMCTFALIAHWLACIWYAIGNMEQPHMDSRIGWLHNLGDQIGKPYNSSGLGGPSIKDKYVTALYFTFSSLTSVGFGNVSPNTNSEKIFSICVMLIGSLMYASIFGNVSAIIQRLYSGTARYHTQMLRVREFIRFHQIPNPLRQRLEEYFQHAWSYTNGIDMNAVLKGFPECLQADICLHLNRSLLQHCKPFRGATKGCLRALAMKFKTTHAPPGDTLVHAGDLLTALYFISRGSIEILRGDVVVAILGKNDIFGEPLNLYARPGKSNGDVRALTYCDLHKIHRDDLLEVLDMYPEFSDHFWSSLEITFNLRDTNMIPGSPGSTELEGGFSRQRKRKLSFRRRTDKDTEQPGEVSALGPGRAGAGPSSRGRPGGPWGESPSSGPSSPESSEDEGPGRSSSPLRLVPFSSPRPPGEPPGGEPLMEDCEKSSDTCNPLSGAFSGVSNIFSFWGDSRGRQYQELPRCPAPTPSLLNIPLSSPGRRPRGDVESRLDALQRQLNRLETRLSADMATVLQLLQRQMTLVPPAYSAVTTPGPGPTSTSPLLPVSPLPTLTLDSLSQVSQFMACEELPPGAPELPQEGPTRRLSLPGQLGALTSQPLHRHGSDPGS
For the compound `CN(CC(=O)Nc1ccc(F)c(F)c1F)C(=O)C1=COCCO1`, the “hERG current change (%, negative = inhibition) at 1uM” value turned out to be 16.5%.

Regarding `O=C(CCCC(=O)N(CC(=O)NC1CCCC1)C1CCCC1)Nc1ccccn1`, the “hERG current change (%, negative = inhibition) at 1uM” value was 10.4%.

Turning to `CC/C(Cc1ccccc1)=N/NC(=O)CCn1nnc2ccccc21`, the “hERG current change (%, negative = inhibition) at 1uM” value came out at 10.6%.

`Cc1cccc(C)c1NC(=O)COC(=O)C1CC(=O)N(Cc2ccccc2)C1` (stereo not drawn): the “hERG current change (%, negative = inhibition) at 1uM” value is 4.08%.

On to `O=c1oc2cc(O)ccc2s1`, for which the “hERG current change (%, negative = inhibition) at 1uM” value is given as 13.5%.

For `CC(=O)c1ccc(OCCCC(=O)n2nnc3ccccc32)cc1`, the “hERG current change (%, negative = inhibition) at 1uM” value was determined as 26.7%.

With `C=CCn1c(NCCO)nc2c1c(=O)n(C)c(=O)n2C`, the “hERG current change (%, negative = inhibition) at 1uM” value worked out at 12.9%.

Regarding `CCN(CC)S(=O)(=O)c1cc(NC(=O)C(=O)c2c(-c3ccccc3)cc3ccccn23)ccc1C`, the “hERG current change (%, negative = inhibition) at 1uM” value is reported as -0.318%.

Regarding `CCCOc1ccc(/C(O)=C2/C(=O)C(=O)N(CCCn3ccnc3)C2c2ccc(C)o2)cc1` (stereo not drawn), the “hERG current change (%, negative = inhibition) at 1uM” value came to 11.3%.

On to `COc1cccc(/C=N/NC(=O)CSc2nnc(C)n2-c2ccccc2)c1OC`, for which the “hERG current change (%, negative = inhibition) at 1uM” value is 5.05%.

For `CN(c1ccccc1)S(=O)(=O)c1cccc(NC(=O)c2cccc(C#N)c2)c1`, the “hERG current change (%, negative = inhibition) at 1uM” value was -2.81%.

Take `CN1CCN(C(=O)C23CCC(C)(C(=O)C2Br)C3(C)C)CC1` (stereo not drawn): the “hERG current change (%, negative = inhibition) at 1uM” value is recorded as 11.6%.

With `C/C(=N\Nc1nc(N)cc(Cl)n1)c1ccc(F)cc1`, the “hERG current change (%, negative = inhibition) at 1uM” value amounted to 1.46%.

Consider `CCn1c(C)csc1=NC(=O)c1ccccc1`, for which the “hERG current change (%, negative = inhibition) at 1uM” value was 11.3%.

Take `CCN(CC)C(=O)Cn1c(=O)n(CCC(=O)Nc2ccc(F)cc2)c(=O)c2sccc21`: the “hERG current change (%, negative = inhibition) at 1uM” value came to 9.3%.

On to `O=C(CSc1nnc(CNC(=O)c2cccs2)o1)Nc1cccc(F)c1`, for which the “hERG current change (%, negative = inhibition) at 1uM” value is 10.4%.

As to `O=S(=O)(c1ccc2[nH]c3c(c2c1)CCCC3)N1CCCCC1`, the “hERG current change (%, negative = inhibition) at 1uM” value worked out at 6.15%.

Consider `CCC1(c2ccc(F)cc2)NC(=O)N(CC(=O)N2c3ccccc3NC(=O)C2(C)C)C1=O` (stereo not drawn), for which the “hERG current change (%, negative = inhibition) at 1uM” value is given as 0.893%.

Regarding `CCCCNC(=O)c1cccc(S(=O)(=O)N2CC3(C)CC2CC(C)(C)C3)c1` (stereo not drawn), the “hERG current change (%, negative = inhibition) at 1uM” value was 0.441%.

Regarding `CCC(=O)N(Cc1ccc(S(N)(=O)=O)cc1)C1CC(=O)N(c2ccccc2)C1=O` (stereo not drawn), the “hERG current change (%, negative = inhibition) at 1uM” value is given as 9.31%.

With `CCCS(=O)(=O)c1nc(S(=O)(=O)c2ccc(C)cc2)c(N2CCN(C)CC2)s1`, the “hERG current change (%, negative = inhibition) at 1uM” value was determined as 18.9%.

With `COc1ccc(CNC(=O)COC(=O)c2ccc3ncsc3c2)cc1OC`, the “hERG current change (%, negative = inhibition) at 1uM” value is recorded as 15.2%.

On to `O=C(NCCCN1CCCCCC1)c1cc2c(=O)oc3ccccc3c2s1`, for which the “hERG current change (%, negative = inhibition) at 1uM” value was -11.1%.

For the compound `Cc1cccc(NC(=S)Nc2ccccn2)c1`, the “hERG current change (%, negative = inhibition) at 1uM” value amounted to 10%.

As for `Cc1ccc(NC(=O)COc2coc(CN3CCc4ccccc43)cc2=O)c(C)c1`, the “hERG current change (%, negative = inhibition) at 1uM” value was found to be 1.64%.

`CN(CC(=O)Nc1ccccc1Br)CC(=O)Nc1ccccc1C(F)(F)F`: the “hERG current change (%, negative = inhibition) at 1uM” value is given as -2.9%.

With `CCc1cccc2c(C#N)cn(CC(=O)N3CCOCC3)c12`, the “hERG current change (%, negative = inhibition) at 1uM” value amounted to 8.98%.

Take `Cl.O=C(COc1ccc(Cl)cc1)NCCN1CCCC1`: the “hERG current change (%, negative = inhibition) at 1uM” value came to 4.75%.

In the case of `O=C(NCC1CCCO1)c1cc2c(s1)CCCC2` (stereo not drawn), the “hERG current change (%, negative = inhibition) at 1uM” value is on record as 14.8%.

Turning to `CSc1nc2c(c(=O)[nH]1)C(c1cccc(Br)c1)CC(=O)N2` (stereo not drawn), the “hERG current change (%, negative = inhibition) at 1uM” value is given as 14.4%.

For the compound `CC1C(=O)N2CCCc3cc(NC(=O)C4CC4)cc1c32` (stereo not drawn), the “hERG current change (%, negative = inhibition) at 1uM” value is 6.68%.

With `Cc1cccc(NC(=S)NCCO)c1C`, the “hERG current change (%, negative = inhibition) at 1uM” value is listed as 17.6%.

In the case of `Cc1cc(C)cc(N(C(C)C(=O)Nc2c(C)n(C)n(-c3ccccc3)c2=O)S(C)(=O)=O)c1` (stereo not drawn), the “hERG current change (%, negative = inhibition) at 1uM” value amounted to 8.49%.

With `CCN(CC)S(=O)(=O)c1cccc(-c2nnc(SCC(=O)NC3CCCC3)n2N)c1`, the “hERG current change (%, negative = inhibition) at 1uM” value worked out at 19.5%.

As to `CN(C)C(=S)NCc1ccccc1`, the “hERG current change (%, negative = inhibition) at 1uM” value is listed as 11.8%.

On to `CC(=O)Nc1ccc(NC(=O)CSc2nnnn2C2CCCCC2)cc1`, for which the “hERG current change (%, negative = inhibition) at 1uM” value was determined as 7.21%.

For `O=C(NCCc1c[nH]c2ccccc12)/C(=C\c1cccs1)NC(=O)c1ccccc1`, the “hERG current change (%, negative = inhibition) at 1uM” value is recorded as -3.43%.

Regarding `Clc1cccc(CON/C=N/c2ncnc3sccc23)c1`, the “hERG current change (%, negative = inhibition) at 1uM” value turned out to be 6.94%.

For `COc1ccc(Cl)cc1N1C(=O)C2CCCN2C1c1ccccc1F` (stereo not drawn), the “hERG current change (%, negative = inhibition) at 1uM” value came to 3.82%.

On to `Cc1ccc(N2CC(C(=O)Nc3nnc(SCCN4CCOCC4)s3)CC2=O)cc1` (stereo not drawn), for which the “hERG current change (%, negative = inhibition) at 1uM” value is reported as 2.63%.

In the case of `NC(=O)c1nc(-c2cccs2)nc2c1[nH]c(=O)n2-c1ccc(F)cc1`, the “hERG current change (%, negative = inhibition) at 1uM” value is reported as 11.8%.

On to `O=C(O)C1CC=CCC1C(=O)N1CC=C(c2ccccc2)CC1` (stereo not drawn), for which the “hERG current change (%, negative = inhibition) at 1uM” value is recorded as 6.47%.

For `CCc1cccc(C)c1NC(=O)CCN1C(=O)NC(C)(C)C1=O`, the “hERG current change (%, negative = inhibition) at 1uM” value was determined as 13.4%.

Turning to `Cl.Clc1ccc(CN2C3=NCCN3c3ccccc32)cc1`, the “hERG current change (%, negative = inhibition) at 1uM” value is on record as -40.4%.

As for `COC(=O)c1ccccc1NC(=O)C(C)c1ccc([N+](=O)[O-])cc1` (stereo not drawn), the “hERG current change (%, negative = inhibition) at 1uM” value is given as -0.752%.
